Measured values: publication PMC4336329 (PLoS ONE, 2015)
Among all 310,000 compounds or so, about 14,000 (4.5%) showed an effect of 50% or more. The effect is printed as a negative number. This is one part of the list.

molecular target: human ether-à-go-go-related gene (hERG) potassium channel (human, UniProt Q12809); test: primary screen, population patch clamp on CHO cells stably expressing hERG
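Note: peak tail current of the secondary pulse compared with the same well before compound.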

Sequence of human ether-à-go-go-related gene (hERG) potassium channel (Q12809 whole entry, looked up): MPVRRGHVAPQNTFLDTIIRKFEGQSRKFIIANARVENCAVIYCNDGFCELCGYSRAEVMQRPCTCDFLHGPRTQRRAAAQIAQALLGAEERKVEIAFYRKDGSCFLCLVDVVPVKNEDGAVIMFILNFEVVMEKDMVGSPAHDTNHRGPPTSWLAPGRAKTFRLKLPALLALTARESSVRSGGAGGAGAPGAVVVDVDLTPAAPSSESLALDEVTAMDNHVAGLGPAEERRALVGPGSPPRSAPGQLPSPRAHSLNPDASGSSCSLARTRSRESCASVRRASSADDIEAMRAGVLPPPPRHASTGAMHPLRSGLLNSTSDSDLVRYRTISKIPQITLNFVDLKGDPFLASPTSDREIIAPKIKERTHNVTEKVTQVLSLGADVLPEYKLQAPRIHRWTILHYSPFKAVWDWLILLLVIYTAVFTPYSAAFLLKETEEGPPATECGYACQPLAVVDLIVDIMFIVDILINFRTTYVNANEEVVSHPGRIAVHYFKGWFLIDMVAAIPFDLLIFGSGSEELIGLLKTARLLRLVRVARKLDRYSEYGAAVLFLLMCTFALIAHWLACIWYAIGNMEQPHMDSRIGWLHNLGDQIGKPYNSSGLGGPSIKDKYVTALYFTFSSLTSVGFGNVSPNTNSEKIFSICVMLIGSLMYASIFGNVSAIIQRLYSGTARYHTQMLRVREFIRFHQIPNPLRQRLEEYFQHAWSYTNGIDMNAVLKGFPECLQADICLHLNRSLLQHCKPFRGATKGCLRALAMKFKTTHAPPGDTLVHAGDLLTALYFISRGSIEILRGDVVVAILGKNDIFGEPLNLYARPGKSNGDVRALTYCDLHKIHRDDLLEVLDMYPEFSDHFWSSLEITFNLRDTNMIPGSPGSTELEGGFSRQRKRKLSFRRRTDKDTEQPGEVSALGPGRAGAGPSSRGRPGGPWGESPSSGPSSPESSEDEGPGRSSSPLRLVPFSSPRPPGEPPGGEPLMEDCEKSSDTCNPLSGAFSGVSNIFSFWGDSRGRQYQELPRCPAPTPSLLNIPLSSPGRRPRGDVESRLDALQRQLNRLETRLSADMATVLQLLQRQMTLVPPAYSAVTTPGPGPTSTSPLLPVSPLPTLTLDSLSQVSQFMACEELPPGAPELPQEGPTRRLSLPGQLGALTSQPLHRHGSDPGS

| Structure (SMILES) | hERG current change (%, negative = inhibition) at 10uM |
| --- | --- |
| CCCN(CCC)c1c([N+](=O)[O-])c(=O)oc2ccccc12 | -5.77% |
| Cn1c(=O)c2c(nc(OC/C=C/c3ccccc3)n2C)n(C)c1=O | 2.28% |
| CN(CC(=O)NCc1ccncc1)S(=O)(=O)c1ccc(Br)cc1 | -13.4% |
| CCOC(=O)N1CCN(C(=O)c2cc(COc3cccc(C(C)=O)c3)on2)CC1 | 1.62% |
| Cc1ccc(CS(=O)(=O)CCC(=O)NCCN(C)Cc2ccccc2)cc1 | -17.8% |
| O=C(OCc1c(-c2ccccc2)ncc2ccccc12)c1ccc(Br)cc1 | 20.8% |
| Cc1cc2ncn(/N=C/c3ccc([N+](=O)[O-])o3)c2cc1C | -0.858% |
| C/C(Cl)=C/Cn1c(NCCCn2ccnc2)nc2c1c(=O)[nH]c(=O)n2C | -10.5% |
| COc1ccc(OC)c(/C=C2\S/C(=N/NC(=O)c3ccc4ccccc4c3)NC2=O)c1 | 16.5% |
| Oc1ccc2ccccc2c1C=NC12CN3CCN(CN(C3)C1)C2 | 6.78% |
| CCCNc1nc(Cl)nc(Nc2ccc(Cl)cc2)n1 | 12.6% |
| COC(=O)C(Cc1ccccc1)NC(=O)CC(C)CC(=O)Nc1ccc(C)cc1 (stereo not shown) | 5.88% |
| Cc1cccc(CN2CCOCCS2(=O)=O)c1 | 10.2% |
| Cc1c(OCC(=O)NCC2CCC(C(=O)O)CC2)ccc2c3c(c(=O)oc12)CCC3 (stereo not shown) | 4.29% |
| Cc1cccc(NC(=O)CCSc2nnc(Cc3ccccc3)o2)c1 | 4.48% |
| COc1cccc(CN2CCN(Cc3ccc(C#CC(C)(C)O)s3)CC2CCO)c1 (stereo not shown) | -41.2% |
| COc1cc(OC)nc(-n2ncc(OC)c(Br)c2=O)n1 | -8.39% |
| Cc1cc(C)nc(NC(=O)CSc2ncccn2)n1 | 17.9% |
| CCCCNC(=O)CCCn1c(=S)[nH]c2cc3c(cc2c1=O)OCO3 | 15.1% |
| CCNC(=O)CN(Cc1ccccc1)S(=O)(=O)c1ccccc1 | -2.82% |
| CC(C)CNS(=O)(=O)c1ccc(CCC(=O)N2CCC(C(N)=O)CC2)cc1 | 7.64% |
| COc1ccc(S(N)(=O)=O)cc1C(=O)OCC(=O)NC(C)(C#N)C1CC1 (stereo not shown) | 21.3% |

| Structure (SMILES) | hERG current change (%, negative = inhibition) at 10uM |
| --- | --- |
| COc1ccc(-c2cc(C(=O)N3CCN(c4ccccc4)CC3)c3ccccc3n2)cc1 | 5.37% |
| Cc1cc(-n2c(C)cc(C(=O)CN3C(=O)NC4(CCCCC4C)C3=O)c2C)no1 (stereo not shown) | -17.3% |
| COc1ccc2c(CC(=O)OCC(=O)Nc3cccc(S(N)(=O)=O)c3)coc2c1 | 4.07% |
| Cc1ccc(C(=O)N[C@H](C(=O)OCc2nnc(-c3ccccc3)o2)C(C)C)cc1 | -8.14% |
| COc1cc(C)ccc1Oc1nc(-c2ccccc2O)nc2ccccc12 | 15.4% |
| CCn1c(SCc2ccc(F)cc2)nc2c(c1=O)SCC2 | -0.22% |
| CC(C)CN(C(=O)COC(=O)c1ccc([N+](=O)[O-])o1)C1CCS(=O)(=O)C1 (stereo not shown) | -31.8% |
| Cc1sc(NC(=O)C2CCCO2)c(C#N)c1C (stereo not shown) | 14.1% |
| COc1ccc(CCNC(=O)c2cc(=O)c3ccc(C)cc3o2)cc1OC | 0.816% |
| COc1ccc(-c2cccc(NS(=O)(=O)c3cc([N+](=O)[O-])ccc3C)c2)nn1 | -9.14% |
| COc1cccc(CN(CC2CCCO2)C(=O)c2cc3ccccc3oc2=O)c1 (stereo not shown) | 10.1% |
| CC1CN(C2CCN(C(=O)c3ccccc3Cl)CC2)CC(C)O1 (stereo not shown) | -8.79% |
| Cc1ccc(C(=O)Nc2ncccc2O)o1 | 17.6% |
| O=[N+]([O-])c1ccc(NCc2ccc3c(c2)OCO3)cc1 | 68.6% |
| O=C(Nc1ccc(C(=O)O)cc1)/C(=C\c1ccco1)NC(=O)c1ccccc1Cl | 5.63% |
| O=C(O)CCc1nn2c3ccccc3n(Cc3ccccc3)c2nc1=O | 27% |
| NC(=O)c1c(NC(=O)C(=O)N2CCOCC2)sc2c1CCC2 | 13.1% |
| Cc1cc2ccccn2c1C(=O)c1ccc(Cl)c([N+](=O)[O-])c1 | 19.3% |
| COc1ccc(S(=O)(=O)N(CC(=O)NC2CC2)C2CCCCC2)cc1Cl | -10.9% |
| O=c1c2cc(NC(=S)N3CCCC3)ccc2nc2n1CCCCC2 | -28% |
| O=C(Nc1ccc(F)cc1Cl)C1=COCCO1 | -5.63% |
